{
  "source": "patent US20240091321A1",
  "about": "(AMICUS THERAPEUTICS, published 2024)",
  "binders": {"B1": {"name": "vIGF2-NAGLU-HPC4 (enzyme)", "chain": "[about 60 residues cut from this listing]GGGGSGGGGSRPRAVPTQAEAREAAAVRALVARLLGPGPAADFSVSVERALAAKPGLDTYSLGGGGAARVRVRGSTGVAAAAGLHRYLRDFCGCHVAWSGSQLRLPRPLPAVPGELTEATPNRYRYYQNVCTQSYSFVWWDWARWEREIDWMALNGINLALAWSGQEAIWQRVYLALGLTQAEINEFFTGPAFLAWGRMGNLHTWDGPLPPSWHIKQLYLQHRVLDQMRSFGMTPVLPAFAGHVPEAVTRVFPQVNVTKMGSWGHFNCSYSCSFLLAPEDPIFPIIGSLFLRELIKEFGTDHIYGADTFNEMQPPSSEPSYLAAATTAVYEAMTAVDTEAVWLLQGWLFQHQPQFWGPAQIRAVLGAVPRGRLLVLDLFAESQPVYTRTASFQGQPFIWCMLHNFGGNHGLFGALEAVNGGPEAARLFPNSTMVGTGMAPEGISQNEVVYSLMAELGWRKDPVPDLAAWVTSFAARRYGVSHPDAGAAWRLLLRSVYNCSGEACRGHNRSPLVRRPSLQMNTSIWYNRSDVFEAWRLLLTSAPSLATSPAFRYDLLDLTRQAVQELVSLYYEEARSAYLSKELASLLRAGGVLAYELLPALDEVLASDSRFLLGSWLEQARAAAVSEAEADFYEQNSRYQLTLWGPEGNILDYANKQLAGLVANYYTPRWRLFLEALVDSVAQGIPFQQHQFDKNVFQLEQAFVLSKQRYPSQPRGDTVDLAKKIFLKYYPRWVAGSWGLEVLFQGPEDQVDPRLIDGK", "notes": "Whole entry; it includes the native NAGLU signal peptide; also called IGF2-tagged NAGLU (vIGF2)"}},
  "biological_target": "T1, CI-MPR receptor",
  "T1 construct": "also called IGF2/CI-MPR; IGF2/Mannose-6-phosphate receptor",
  "experiment": "CIMPR plate binding assay, bound NAGLU activity (4MU released)",
  "data": [
    {"binder": "B1", "values": [
      {"measurement": "Kd", "value": 38.2, "unit": "nM"}
    ]}
  ]
}
